Measurements as given in the supplement of paper PMC10126150.
Values marked as one replicate rest on one cluster of the flow cell; about a third of the high ones do not repeat.
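Also: ATP exposure 15 min at 22 °C before imaging.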

The sequences below were run on ATP (assay: switch fluorescence ratio, 500 uM ATP over buffer (Cy3 cluster intensity, sum of 5 cycles each) (fold (ratio)); higher = stronger signal-on switching upon ATP binding; sequences stand for … in TCGTCGGCAGCGTCAGATGTGTATAAGAGACAGTTTTTTTTTTTTTTTTTTTTTTTTT…TC). Conditions: aptamer strand: ATP DNA aptamer (quencher-CACCTGGGGGAGTATTGCGGAGGAAGG + anchor), 100 nM annealed; ATP concentration: 500 uM; one replicate.
Method in brief: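 Values give the fluorescence ratio for each switch-domain sequence, averaged from per-cluster ratios of summed target-cycle to summed buffer-cycle Cy3 intensity. The Cy3-labelled switching-strand clusters sat on a modified Illumina MiSeq flow-cell, were annealed to 100 nM quencher-labelled ATP aptamer, and were imaged in selection buffer, then after 15 min with 500 uM ATP at 22 °C. Five cycles ran with NaOH stripping and re-annealing between them, and clusters outside 100-1000 RFU were excluded.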
In the case of CTACGTAAGG, the switch fluorescence ratio is reported as 1.35.
In the case of CTACGTTGGC, the switch fluorescence ratio is reported as 1.59.
CTACTAACTT was tested, and the switch fluorescence ratio was 1.14.
Work on CTACTAAGAA yielded a switch fluorescence ratio of 1.01.
Work on CTACTAGTAC yielded a switch fluorescence ratio of 1.29.
CTACTATCGC showed a switch fluorescence ratio of 1.09.
CTACTCCGTC showed a switch fluorescence ratio of 1.4.
CTACTTGAG showed a switch fluorescence ratio of 1.02.
CTACTTTACG was tested, and the switch fluorescence ratio was 1.26.
Sequence CTAGAATCCA has a switch fluorescence ratio of 0.955.
With CTAGACTGAT the switch fluorescence ratio was 1.02.
Sequence CTAGAGAACT has a switch fluorescence ratio of 1.03.
For CTAGAGAATA, the switch fluorescence ratio was 0.985.
With CTAGCGAACG the switch fluorescence ratio was 1.07.
For CTAGCGGATA, the switch fluorescence ratio was 1.04.
Work on CTAGCGGCAT yielded a switch fluorescence ratio of 1.06.
CTAGGAACTT was tested, and the switch fluorescence ratio was 0.999.
For CTAGGATCCG, the switch fluorescence ratio was 0.983.
CTAGGGAGGA showed a switch fluorescence ratio of 1.03.
Work on CTAGGGGTAA yielded a switch fluorescence ratio of 0.969.
CTAGGGGTTA showed a switch fluorescence ratio of 0.969.
CTAGGGTGCA gave a switch fluorescence ratio of 0.956.
For CTAGGTCAAC, the switch fluorescence ratio was 0.985.
CTAGGTGAGC was tested, and the switch fluorescence ratio was 1.05.
For CTAGGTGGG, the switch fluorescence ratio was 1.02.
In the case of CTAGTAGGCT, the switch fluorescence ratio is reported as 1.
Work on CTAGTATTTC yielded a switch fluorescence ratio of 0.947.
Work on CTAGTCAAGT yielded a switch fluorescence ratio of 0.994.
CTAGTCCTCG showed a switch fluorescence ratio of 0.985.
CTAGTCGCTG showed a switch fluorescence ratio of 0.986.
For CTAGTGGGGG, the switch fluorescence ratio was 0.984.
With CTAGTTCTGA the switch fluorescence ratio was 0.976.
In the case of CTAGTTGGGT, the switch fluorescence ratio is reported as 1.03.
Sequence CTATAAAGTA has a switch fluorescence ratio of 0.991.
CTATAACCTG gave a switch fluorescence ratio of 1.18.
In the case of CTATAAGCT, the switch fluorescence ratio is reported as 1.05.
Sequence CTATAAGTGT has a switch fluorescence ratio of 0.976.
Work on CTATAATGCG yielded a switch fluorescence ratio of 0.989.
CTATAATTTC showed a switch fluorescence ratio of 1.01.
With CTATAGGGGT the switch fluorescence ratio was 0.994.
With CTATCAGCG the switch fluorescence ratio was 1.03.
CTATCCTCGT was tested, and the switch fluorescence ratio was 0.993.
CTATCTTGGG showed a switch fluorescence ratio of 0.952.
CTATGAAAGG gave a switch fluorescence ratio of 0.992.
For CTATGAACCT, the switch fluorescence ratio was 1.47.
Work on CTATGAGTG yielded a switch fluorescence ratio of 0.961.
CTATGGAACC was tested, and the switch fluorescence ratio was 1.01.
In the case of CTATGGAACG, the switch fluorescence ratio is reported as 0.99.
CTATGGATCG showed a switch fluorescence ratio of 0.975.
Work on CTATGGCTCC yielded a switch fluorescence ratio of 1.03.
CTATGTACTG was tested, and the switch fluorescence ratio was 1.
For CTATGTCC, the switch fluorescence ratio was 0.982.
Work on CTATGTGGCC yielded a switch fluorescence ratio of 0.992.
With CTATTCCAAC the switch fluorescence ratio was 1.06.
CTATTCCG showed a switch fluorescence ratio of 1.01.
For CTATTGCTTT, the switch fluorescence ratio was 1.03.
CTATTTGTAC showed a switch fluorescence ratio of 1.04.
Work on CTATTTGTG yielded a switch fluorescence ratio of 0.986.
CTCAAAAGAA was tested, and the switch fluorescence ratio was 1.07.
With CTCAAATTGC the switch fluorescence ratio was 1.37.
Sequence CTCAAGGAAT has a switch fluorescence ratio of 1.11.
With CTCAATAAAT the switch fluorescence ratio was 1.01.
For CTCAATACA, the switch fluorescence ratio was 1.32.
CTCACACCAG showed a switch fluorescence ratio of 1.15.
CTCACCGAGT showed a switch fluorescence ratio of 1.
CTCACGGTGG was tested, and the switch fluorescence ratio was 0.963.
With CTCACTTAT the switch fluorescence ratio was 1.08.
For CTCAGAAATT, the switch fluorescence ratio was 1.07.
CTCAGAGGTG gave a switch fluorescence ratio of 1.36.
Work on CTCAGCACTG yielded a switch fluorescence ratio of 1.38.
CTCAGCAGCT was tested, and the switch fluorescence ratio was 2.24.
Sequence CTCAGCATAT has a switch fluorescence ratio of 2.67.
For CTCAGGCTGA, the switch fluorescence ratio was 1.05.
For CTCAGGGACG, the switch fluorescence ratio was 0.897.
Sequence CTCAGGGCCA has a switch fluorescence ratio of 1.01.
CTCAGTTAAG showed a switch fluorescence ratio of 0.97.
Work on CTCAGTTT yielded a switch fluorescence ratio of 0.995.
CTCATCCCAG was tested, and the switch fluorescence ratio was 2.14.
CTCATCGTTA was tested, and the switch fluorescence ratio was 1.05.
CTCATGCGCT was tested, and the switch fluorescence ratio was 1.1.
CTCATTAATT was tested, and the switch fluorescence ratio was 0.948.
CTCATTATTT gave a switch fluorescence ratio of 1.01.
With CTCCAAATTG the switch fluorescence ratio was 1.29.
Sequence CTCCAAGAT has a switch fluorescence ratio of 3.62.
With CTCCAATGCG the switch fluorescence ratio was 1.55.
In the case of CTCCATATTT, the switch fluorescence ratio is reported as 1.09.
Sequence CTCCATTCT has a switch fluorescence ratio of 1.02.
CTCCCCCTTG showed a switch fluorescence ratio of 4.79.
CTCCCGAGAA gave a switch fluorescence ratio of 1.13.
In the case of CTCCGATCGG, the switch fluorescence ratio is reported as 1.05.
Sequence CTCCGGGGT has a switch fluorescence ratio of 1.82.
CTCCGTTAAT showed a switch fluorescence ratio of 0.991.
CTCCTCAGAC showed a switch fluorescence ratio of 2.97.
Work on CTCCTCGAGT yielded a switch fluorescence ratio of 1.02.
For CTCCTTATGT, the switch fluorescence ratio was 0.996.
Sequence CTCCTTGAGC has a switch fluorescence ratio of 1.09.
Work on CTCCTTGCGC yielded a switch fluorescence ratio of 1.46.
CTCCTTTCTT showed a switch fluorescence ratio of 0.994.
For CTCCTTTTCC, the switch fluorescence ratio was 1.13.
CTCGAAATTT showed a switch fluorescence ratio of 0.989.
Work on CTCGAACGTC yielded a switch fluorescence ratio of 0.948.
CTCGAATTAA gave a switch fluorescence ratio of 1.04.
CTCGATCCTC showed a switch fluorescence ratio of 1.06.
In the case of CTCGATGGA, the switch fluorescence ratio is reported as 0.95.
CTCGATTGAG was tested, and the switch fluorescence ratio was 0.997.
With CTCGCACTCA the switch fluorescence ratio was 1.94.
In the case of CTCGCATCAA, the switch fluorescence ratio is reported as 1.7.
CTCGCCAGGA gave a switch fluorescence ratio of 1.15.
CTCGCGCAAG gave a switch fluorescence ratio of 3.5.
With CTCGCGCTGG the switch fluorescence ratio was 1.08.
Work on CTCGCGGCTG yielded a switch fluorescence ratio of 1.02.
Work on CTCGCTTAGC yielded a switch fluorescence ratio of 1.26.
With CTCGCTTGCC the switch fluorescence ratio was 0.963.
For CTCGGAAACT, the switch fluorescence ratio was 1.04.
CTCGGCGGCG was tested, and the switch fluorescence ratio was 1.
Work on CTCGGCGGTG yielded a switch fluorescence ratio of 1.01.
In the case of CTCGGGAGAT, the switch fluorescence ratio is reported as 0.985.
With CTCGGGTGCA the switch fluorescence ratio was 1.06.
CTCGGTCGGG gave a switch fluorescence ratio of 0.997.
CTCGGTGGCG showed a switch fluorescence ratio of 0.98.
CTCGGTTGGA gave a switch fluorescence ratio of 1.01.
CTCGTCAGGC gave a switch fluorescence ratio of 1.22.
CTCGTCAGGT showed a switch fluorescence ratio of 1.06.
CTCGTCCCTG showed a switch fluorescence ratio of 1.
CTCGTTAATT was tested, and the switch fluorescence ratio was 1.03.
CTCGTTGACC was tested, and the switch fluorescence ratio was 1.02.
CTCGTTGATA gave a switch fluorescence ratio of 1.03.
CTCTACAATG was tested, and the switch fluorescence ratio was 1.33.
With CTCTAGGGTG the switch fluorescence ratio was 1.13.
For CTCTAGTGTT, the switch fluorescence ratio was 1.
For CTCTATCCTA, the switch fluorescence ratio was 0.973.
With CTCTATGAAT the switch fluorescence ratio was 0.993.
With CTCTCGTGCA the switch fluorescence ratio was 1.16.
With CTCTCTTAAC the switch fluorescence ratio was 1.06.
CTCTGAATGT showed a switch fluorescence ratio of 1.06.
For CTCTGACCCT, the switch fluorescence ratio was 1.03.
CTCTGCGCAT showed a switch fluorescence ratio of 3.89.
For CTCTGTTGTC, the switch fluorescence ratio was 1.02.
For CTCTTAGGAC, the switch fluorescence ratio was 0.998.
CTCTTATAGA gave a switch fluorescence ratio of 1.
CTCTTCTAGT was tested, and the switch fluorescence ratio was 0.989.
Work on CTCTTGAGAC yielded a switch fluorescence ratio of 1.01.
Work on CTGAACATAA yielded a switch fluorescence ratio of 1.03.
CTGAACTAGC was tested, and the switch fluorescence ratio was 1.02.
With CTGAAGGTGA the switch fluorescence ratio was 1.18.
CTGAAGTCCC showed a switch fluorescence ratio of 1.03.
CTGAATTTTA showed a switch fluorescence ratio of 1.
In the case of CTGACAGTCA, the switch fluorescence ratio is reported as 1.06.
For CTGACATAGA, the switch fluorescence ratio was 1.01.
CTGACGCCTG was tested, and the switch fluorescence ratio was 1.15.
CTGACGGGCG showed a switch fluorescence ratio of 0.88.
In the case of CTGACGTCTA, the switch fluorescence ratio is reported as 1.24.
With CTGAGAATTC the switch fluorescence ratio was 0.985.
